Results published in PubChem BioAssay AID686970 (National Center for Advancing Translational Sciences (NCATS), 2013).
Among all 360,000 compounds or so, about 6,000 (1.7%) were called active. Inconclusive results, whose numbers are uncertain, are shown with a selection of clear calls. Calls follow the shape of the dose curve; as a rule, active = well fitted cell-killing curve with a large enough effect; inconclusive = small, poorly fitted or top-dose-only effect, or effect the other way; inactive = flat fitted curve, though single readings scatter. Potencies of inconclusive entries are left out as doubtful fits.
Potency is read from the fitted curve at half-maximal effect; tags tell the direction and shape of the fitted curve.

Assay: qHTS for induction of synthetic lethality in tumor cells producing 2HG: qHTS for the HT-1080-NT fibrosarcoma cell line;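 also: NT is the 2HG producing partner of a matched IDH1 knockdown line; nearly all actives have a fitted effect of over 55% in size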
Conditions: HT-1080-NT fibrosarcoma viability, CellTiter-Glo ATP luminescence, 48 h; series mostly up to 46.1 µM
How it was run: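 750 cells/well, RPMI + 5% FBS; 2 h settle, compound pin-transfer, 48 h at 37 degrees C. CellTiter-Glo 10 min RT, luminescence. Normalized to DMSO and media-only wells.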
For `CCOC(=O)CSc1nc(C(C)(C)C)cc(C(F)(F)F)c1C#N`, the Potency was inconclusive [rising, partial curve, poor fit]. For `COc1ccccc1-c1nnc2sc(-c3ccc(N(C)C)cc3)nn12`, the Potency was active: 0.92 µM. With `Cc1nc(SCC(=O)N2CCc3ccccc32)n[nH]1` the Potency was “inactive”. With `CC1(C)Cc2c(cnn2-c2ccccc2)C(NC(=O)c2ccc[n+]([O-])c2)C1` (stereo not given) the Potency was “inactive”. In the case of `Cc1ccc2nc(C3CCN(S(=O)(=O)c4ccc5ccccc5c4)CC3)[nH]c2c1`, the Potency is reported as inconclusive [cytotoxic, single point]. In the case of `O=c1[nH]nc(SCCS(=O)(=O)c2ccc(F)cc2)n1-c1ccccc1`, the Potency is reported as inconclusive [cytotoxic, single point]. With `O=C(Nc1ccon1)c1nc[nH]c1C(=O)NCc1ccccc1` the Potency was inconclusive [cytotoxic, partial curve]. With `Cc1ccc(S(=O)(=O)NCCc2cn3nc(C)c(C)nc3n2)cc1C` the Potency was “inactive”. In the case of `COc1cc(-c2coc3c(C(=O)Nc4ccc(C(C)C)cc4)cccc23)ccc1O`, the Potency is reported as inconclusive [cytotoxic, single point]. With `Cn1c(=O)c2c(nc(SCCN3CCOCC3)n2Cc2cccc3ccccc23)n(C)c1=O` the Potency was “inactive”. With `COc1ccccc1NC(=O)C1CCCN(c2cnccn2)C1` (stereo not given) the Potency was “inactive”. For `C=CCOc1ccc(C2C(C#N)=C(N)N(Nc3ccccc3)C3=C2C(=O)CC(C)(C)C3)cc1OC` (stereo not given), the Potency was inconclusive [cytotoxic, single point]. In the case of `O=C(NNc1nc(-c2ccc(F)cc2)cs1)c1ccccc1`, the Potency is reported as inconclusive [cytotoxic, partial curve]. With `Cc1cccc(-c2cc3nc(C)cc(N4CC(C)CC(C)C4)n3n2)c1` (stereo not given) the Potency was “inactive”. In the case of `CC(/C=C/c1ccccc1)=N\NC(=O)c1cc(C)nc2ccccc12`, the Potency is reported as inconclusive [cytotoxic, single point]. In the case of `Clc1ccc(COn2c(-c3ccc(Cl)cc3Cl)nc3ncccc32)cc1`, the Potency is reported as inconclusive [cytotoxic, single point]. For `CCC(=O)Nc1nc2ccccc2n1Cc1ccccc1Cl`, the Potency was inconclusive [cytotoxic, single point]. In the case of `Cc1sc2nc(Cc3ccccc3)[nH]c(=O)c2c1-c1ccccc1`, the Potency is reported as inconclusive [rising, partial curve]. In the case of `COc1ccc(OCc2nc3ccccc3[nH]2)cc1`, the Potency is reported as inconclusive [cytotoxic, single point]. In the case of `CCN(C(=O)c1ccc(C(C)(C)C)cc1)c1nnc(Cn2nnc3ccccc32)s1`, the Potency is reported as inconclusive [cytotoxic, partial curve, poor fit]. In the case of `O=C(Nc1cccc(Cl)c1Cl)c1snnc1-c1ccccc1`, the Potency is reported as “inactive”. In the case of `CS(=O)(=O)c1ccc(C(=O)OCC(=O)NC23CC4CC(CC(C4)C2)C3)cc1[N+](=O)[O-]`, the Potency is reported as inconclusive [cytotoxic, single point]. In the case of `Cc1ccc(NC(=O)COc2ccccc2CNC(C)(C)CC(C)(C)C)cc1`, the Potency is reported as inconclusive [cytotoxic, single point]. With `CCOc1cc(CNc2ccc(N3CCCC3)cc2)cc(Cl)c1OC` the Potency was inconclusive [cytotoxic, single point]. For `CCc1cc(=S)n2c([nH]c3ccccc32)c1C#N`, the Potency was inconclusive [cytotoxic, single point]. With `COc1ccc(NC(=O)Nc2nccs2)cc1` the Potency was inconclusive [cytotoxic, single point]. For `COc1ccc(Cl)cc1CN1C(=O)NC2(CCCCCC2)C1=O`, the Potency was inconclusive [cytotoxic, partial curve]. For `CSc1ccccc1C(=O)NCc1ccccc1C`, the Potency was “inactive”. With `CS(=O)(=O)Nc1ccc(-c2ccc3nccn3c2)cc1` the Potency was inconclusive [rising, single point]. For `O=c1[nH]c(CCl)nc2cc(-c3ccc(Cl)cc3)sc12`, the Potency was active: 16.4 µM. In the case of `Cc1nc(SCc2ccc(Br)cc2)[nH]c(=O)c1C`, the Potency is reported as inconclusive [cytotoxic, single point]. In the case of `COc1ccc([C@H]2C[C@H](n3cc(C4CC4)nn3)[C@@H](O)CN2CC2CCCCC2)cc1`, the Potency is reported as inconclusive [cytotoxic, single point]. For `CC(C)(CO)NCc1c(OCc2ccc(Cl)cc2)ccc2ccccc12`, the Potency was inconclusive [cytotoxic, single point]. In the case of `COc1cc(C2c3cc4c(cc3CC3COC(=O)N32)OCO4)cc(OC)c1OC` (stereo not given), the Potency is reported as active: 1.3 µM. For `Cc1cc(C(=O)NC2CCCc3c2cnn3-c2ccc(C)c(C)c2)n(C)n1` (stereo not given), the Potency was inconclusive [cytotoxic, full curve, poor fit]. With `Cc1cccc(N2CCN(C(=O)c3[nH]c(C(F)(F)F)nc3-c3ccccc3)CC2)c1C` the Potency was inconclusive [cytotoxic, full curve]. In the case of `COc1ccc(-c2cc(C(=O)N3CCCCC3)c3ccccc3n2)cc1OC`, the Potency is reported as “inactive”. For `Cc1nn(-c2ccccc2)c(Cl)c1/C=N/Nc1nc2ccccc2[nH]1`, the Potency was inconclusive [cytotoxic, single point]. In the case of `Cc1ccc2cc(C3C(C#N)=C(N)Oc4c3ccc3cccnc43)c(=O)[nH]c2c1` (stereo not given), the Potency is reported as active: 11.2 µM. With `Cn1nc(C(=O)Nc2ccc(S(=O)(=O)NCc3ccco3)cc2)c2ccccc2c1=O` the Potency was “inactive”. For `COc1cnc(-c2ccccn2)nc1Sc1ccc(C)cc1`, the Potency was inconclusive [cytotoxic, single point]. With `O=C(NCCN1CCOCC1)c1ccc(/C=C2\Sc3ccccc3N(Cc3ccc(F)cc3)C2=O)cc1` the Potency was inconclusive [cytotoxic, single point]. For `Cc1ccc(S(=O)(=O)CCSc2nc(C)cc(C)c2C#N)cc1`, the Potency was inconclusive [cytotoxic, single point]. With `FC(F)(F)c1cc(CCN2C(=S)NC[C@@H]2Cc2ccccc2)cc(C(F)(F)F)c1` the Potency was inconclusive [cytotoxic, single point]. For `O=C1/C(=C/c2ccc(O)c(O)c2)SC(=S)N1Nc1ccccc1`, the Potency was inconclusive [cytotoxic, partial curve]. In the case of `O=C(c1ccc(OC2CCN(Cc3ccc(C(F)(F)F)cc3)CC2)cc1)N1CCCCC1`, the Potency is reported as “inactive”. For `Cc1cc(/C=N/Nc2ccc([N+](=O)[O-])cn2)c(C)n1-c1ccccc1`, the Potency was “inactive”. For `CC(C)(C)n1nc(-c2ccc(F)cc2)c2c(N)ncnc21`, the Potency was inconclusive [cytotoxic, partial curve]. With `Nc1nc(SCc2ccc(Cl)cc2Cl)nc2nc3c(cc12)CCCC3` the Potency was inconclusive [cytotoxic, single point]. For `NC(N)=N/N=C/c1ccc(Cl)c(Cl)c1`, the Potency was inconclusive [cytotoxic, single point]. With `CN(Cc1ccccc1)CC(O)COc1ccc(CNCc2cc3ccccc3s2)cc1` (stereo not given) the Potency was active: 20.6 µM. For `COc1ccc(/C=C2\SC(=S)N(CCCC(=O)N3CCN(C)CC3)C2=O)cc1`, the Potency was active: 25.9 µM. In the case of `CCOc1ccccc1NC(=O)CC1Nc2ccccc2NC1=O` (stereo not given), the Potency is reported as inconclusive [cytotoxic, single point]. In the case of `CCOC(=O)/C(=N\Nc1ccc(Br)cc1)N1CC(C)OC(C)C1` (stereo not given), the Potency is reported as inconclusive [cytotoxic, full curve]. With `CC(=O)Nc1cc(-c2cccc(NS(C)(=O)=O)c2)cn2c(-c3ccccc3)cnc12` the Potency was inconclusive [cytotoxic, partial curve]. In the case of `CCOC(=O)C1=C(O)/C(=C/c2cc(OC)c(OC)c(OC)c2)N=C1C`, the Potency is reported as “inactive”. In the case of `CCN(CC)CCNC(=O)c1ccc(NC(=O)c2cccc(S(=O)(=O)N3CCc4ccccc43)c2)cc1`, the Potency is reported as inconclusive [cytotoxic, single point]. In the case of `Cc1coc2c(C)c3oc(=O)c(CCC(=O)NCCCn4ccnc4)c(C)c3cc12`, the Potency is reported as “inactive”. In the case of `CCOC(=O)c1c(NC(=O)Cc2cccs2)sc(C)c1C`, the Potency is reported as inconclusive [cytotoxic, single point]. In the case of `CC1=NN(c2cccc(C(=O)O)c2)C(=O)/C1=C\C=C\c1ccco1`, the Potency is reported as “inactive”. For `OCCNCc1ccc(OCc2ccc(Cl)cc2Cl)cc1`, the Potency was inconclusive [cytotoxic, single point]. For `COC(=O)C1=C(C)NC(=S)N(C(C)=O)C1c1ccc(OC)c(OC)c1` (stereo not given), the Potency was inconclusive [cytotoxic, single point]. With `O=C(Nc1ccc2c(c1)C(=O)OC2)c1ccc(Cl)cc1` the Potency was inconclusive [rising, partial curve]. With `O=C(NCc1cccnc1)c1cccc(NC(=O)c2ccco2)c1` the Potency was inconclusive [cytotoxic, single point]. In the case of `COc1ccc(C2=Nc3ccccc3N(C(=O)c3cc(Cl)cc(Cl)c3)C2C(=O)NCc2ccccc2)cc1` (stereo not given), the Potency is reported as “inactive”. For `O=C(NNC(=S)NC1CCCCC1)c1sc2ccccc2c1Cl`, the Potency was inconclusive [cytotoxic, single point]. With `CC(C)(C)C(=O)COC(=O)C1=NN(c2ccccc2)C(=O)CC1` the Potency was “inactive”. In the case of `CN(C)C/C=C(\c1ccc(Br)cc1)c1cccnc1`, the Potency is reported as inconclusive [cytotoxic, single point]. In the case of `CC(=O)Nc1cc(-c2cccc(C(=O)NCCO)c2)cn2c(-c3cccc(C(F)(F)F)c3)cnc12`, the Potency is reported as active: 23.1 µM. For `CCC(c1nc2ccccc2[nH]1)n1c(=O)c(-c2ccccc2)nc2ccccc21` (stereo not given), the Potency was inconclusive [cytotoxic, single point].
